# Laboratory results: the supplement of paper PMC10338343
# ± gives the standard deviation. Over roughly 6,600 sequences, “pre-steady-state target cleavage rate” has its median near 0.07; the highest 2% begin near 0.72. This is a selection; strong and weak results do not stand in their true shares.
# Test system: MIWI (PIWIL1) piRISC loaded with Kctd7 piRNA (30 nt)
# Assay: pre-steady-state target cleavage rate (min^-1); MIWI and MILI are mouse PIWI proteins and EfPiwi is from a freshwater sponge; tags in brackets are library labels; higher = faster piRNA-guided slicing of the target
# Settings: guide: Kctd7 piRNA 5'p-UGUUAAUCUCUCAGAGAAGGUGACAGUGAU; auxiliary factor: 500 nM mouse GTSF1
# Procedure, shortened: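 Sequencing of uncleaved targets, normalised to depth and to weakly complementary targets, was the readout of this Cleave-'n-Seq assay. A transcribed, DNA-blocked target RNA library (0.1 nM) was mixed with 1 nM active affinity-purified piRISC carrying one synthetic guide, with or without 500 nM GTSF1 partner protein, in HEPES–potassium acetate buffer at 33 °C for 0–8 or 0–960 min. Three trials were pooled, k3 was capped at 0.0001 min^-1, and a burst-and-steady-state fit gave the pre-steady-state cleavage rate.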
row,Sequence,pre-steady-state target cleavage rate
1,UAGACUGUCACCUUCUCUGCGAGAUUAACA,0.391 ± 0.028
2,UAGUGACAGUCCUUCUCUGAGAGAUUAGACA,0.0176 ± 0.0041
3,UAGUGAGUCACCUUCACUGAGAGAUUAACA,0.559 ± 0.046
4,UUCUCUGACACCUUCUCUGAGAGAUUAACA,0.532 ± 0.021
5,UACACUGUGUGCUUCUCUGAGAGAUUAACA,0.0294 ± 0.0055
6,AUCACUGUCUCCUUCUCAGAGAGAUUAACA,0.374 ± 0.027
7,UAGUGAGAUCACCUUCUCUGAGAGAUUAACA,0.499 ± 0.037
8,UAGUGACAGUGCUUCGCUGAGAGAUUAACA,0.00389 ± 0.0031
9,AUCAGACUCACCUUCUCUGAGAGAUUAAGA,0.159 ± 0.028
10,AUCACUGUCAGCUUCUCUGAGAGAUUAUGA,0.0539 ± 0.011
11,UAGUCUGUCACCUUCUCUCAGAGUUUAACA,0.0454 ± 0.009
12,UUCACUGUCACCCUUCUCUGAGAGAUUAACA,0.543 ± 0.031
13,UAGUCUGUGUCCUUCUCUGAGAGAUUAUGA,0.0165 ± 0.0054
14,UAGACUGUCACCUUCUCUGACUGAUUAACA,0.00921 ± 0.0024
15,UAGUGACACACCUACACUGAGAGAUUAACA,0.011 ± 0.0044
16,AUCACUGUCACCUUCUCUGAGAGAAAUAGA,0.0401 ± 0.016
17,UACACUGUCACCUACUCAGAGAGAUUAACA,0.118 ± 0.016
18,UUCACUGUGACCUUCUCUGAGAGAUUAUCA,0.2 ± 0.028
19,UAGUGUGUCACCUUCUCUGAGCGAUUAACA,0.195 ± 0.019
20,UAGUGACAGACCUUCACUGAGUGAUUAACA,0.00667 ± 0.0033
21,UAGUGACUCACGUUCUCUGAGAGUUUAACA,0.0255 ± 0.006
22,AUGUCUGUCACCUUCUCUGAGAGAUUAUGA,0.0494 ± 0.013
23,UAGACUGUCUCCUUCUGUGAGAGAUUAACA,0.527 ± 0.029
24,AUCACUGUCACCUUCUCUGAGACUAUAACA,0.00561 ± 0.0031

row,Sequence,pre-steady-state target cleavage rate
1,UAGUGAGUCACCUUCUCUGAGAGAUUAACG [g2:g24:cont:t1G],0.622 ± 0.053
2,UAGUGACUCACCUUGACUGAGAGAUUAACA,0.00915 ± 0.0025
3,UAGACAGUCUCCUUCUCUGAGAGAUUAACA,0.433 ± 0.031
4,UAGUGACACACCUUCUCUGAGAGAUGAACA,0.082 ± 0.017
5,UAGACUCUCACCUUCUCUGAGAGAUUAAGA,0.15 ± 0.024
6,UAGUGUGUCACCUUCUCUGAGAUGAUUAACA,0.0117 ± 0.0068
7,AUCACUCUCACCUUCUCAGAGAGAUUAACA,0.364 ± 0.019
8,UAGUGUGUCACGUUCUCUGUGAGAUUAACA,0.204 ± 0.016
9,AUCACUGUCACCUUCUCUGAGAGUUAACA,0.663 ± 0.19
10,UAGUGUGUCACCUACUCUGAGAGAUAUUGA,0.00515 ± 0.0043
11,UAGUGACAGUCCUAUCUCUGAGAGAUUAACA,0.0261 ± 0.0026
12,UAGUGACUCACCUUACUCUGAGAGAUUAACA,0.126 ± 0.011
13,UUCACUGUCACCUUCUCUGACGAGAUUAACA,0.0334 ± 0.0098
14,UACACUGUCACCUUCCUGAGAGAUUAACA,0.0783 ± 0.023
15,UAGUGUGUCACCUUCUUGAGAGAUUAACA,0.0206 ± 0.0079
16,UACACUGUCACCUACUCUGAGAGAUUAUGA,0.0508 ± 0.02
17,UUCUCUGUCACCUACUCUGAGAGAUUAACA,0.546 ± 0.034
18,UUCACUGUCAGCUUCUCUGAGAGUUUAACA,0.169 ± 0.021
19,UUCACUGUCACCUUCUCUAAGAGAUUAACA,0.433 ± 0.019
20,AUCACACACACCUUCUCUGAGAGAUUUUGA,0.106 ± 0.027
21,UAGUGACAGACCUUCACUGUGAGAUUAACA,0.00717 ± 0.0025
22,UUGACUGUCACCUUCUCUGAGAGAUAUUGA,0.00403 ± 0.003
23,UAGACUGUCACCUUCUCUGAGAGAUCAACA,0.339 ± 0.034
24,UUCACUGUCACCUUCUCUGCGAGAUUAACA,0.399 ± 0.031

row,Sequence,pre-steady-state target cleavage rate
1,UUCACUCUCACGUUCUCUGAGAGAUUAACA,0.435 ± 0.029
2,UAGUCUGUCACGUUCUCUGAGAGAAUAACA,0.222 ± 0.034
3,UAGUGACUGUCCUUCUCUGAGAGAUUAAGA,0.0241 ± 0.0089
4,UAGACUGUCACCUUCUCUGUGAGAUUAUCA,0.0862 ± 0.01
5,UAGUCUGUCAGCUUCUCAGAGAGAUUAACA,0.226 ± 0.015
6,UAGUGACAGUGGAUCUCUGAGAGAUUAUACA,< 0.0001
7,UAGUGACAGACCUUCUCUGAGAGAUUAAA,0.0488 ± 0.011
8,UUCACUCUCACCUUCUCAGAGAGAUUAACA,0.41 ± 0.021
9,AUCAAUGUCACCUUCUCUGAGAGAUUAACA,0.672 ± 0.03
10,UAGUGACACACCUUCUGUGAGAGAUAAACA,0.162 ± 0.024
11,UAGACUGUCAGCUUCUCUGACAGAUUAACA,0.00471 ± 0.0038
12,UUCACUCUCACCUUCUCUGAGAGAUUUUGA,0.062 ± 0.013
13,UAGACUGUCACCUUACUCUGAGAGAUUAACA,0.621 ± 0.045
14,UUCACUGUCACCUUCUCUGAGAUAUUAACA,0.251 ± 0.023
15,UAGUGAGUCACCUUAUCUGAGAGAUUAACA,0.363 ± 0.02
16,UAGUCACACACCUUCUCUGAGAGAUUUUGA,0.0545 ± 0.014
17,UAGACUGUCACCUUCUCUGAGAGUAUUAACA,0.442 ± 0.018
18,AUCAGUGUCACCUUCUCUGAGAGUUUAACA,0.446 ± 0.071
19,UAGUGACAGUCCAUCUCUGAGAGAUUAUGA,< 0.0001
20,AUCACUCUCACCAUCUCUGAGAGAUUAACA,0.473 ± 0.027
21,AUCACUGUCACCUUCUCUCAGACAUUAACA,0.0609 ± 0.0057
22,UAGUCACUCACCUUCUCUGAGAGAUUAUGA,0.0544 ± 0.017
23,UUCACUGUCACCUUCUCUGAGAGAUUUACA,0.418 ± 0.052
24,UAGUGAGUCACCUACUCUGAGAGAUUAACA,0.589 ± 0.039
